Laboratory results taken from PubChem BioAssay AID588855 (National Center for Advancing Translational Sciences (NCATS), 2011).
About 5,000 (1.2%) of roughly 410,000 compounds were called active. Inconclusive results, whose numbers are uncertain, are shown with a selection of clear calls. Calls follow the shape of the dose curve; as a rule, active = well fitted inhibition curve with a large enough effect; inconclusive = small, poorly fitted or top-dose-only effect; inactive = no such curve, though single readings can be large or run the other way. Potencies of inconclusive entries are doubtful fits and often do not repeat.
Potency is read from the fitted curve at half-maximal effect; tags tell the direction and shape of the fitted curve.

Assay: qHTS for Inhibitors of TGF-b; also: nearly all actives have a fitted effect of over 65% in size
Settings: HepG2 CAGA-GFP TGF-b/SMAD3 reporter, GFP fluorescence, 18 h, TGF-beta stimulated, 500 pg/mL final; series mostly up to 46.1 µM
Method in brief: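 HEPG2 CAGA-GFP, 1000 cells/well; 2 h settle, 37 C; cpd via pin tool; TGF-b 500 pg/mL final; 18 h, 37 C; GFP imaging ex488/em500-530; %Activity normalised to -TGF-b and +DMSO controls; CRC fit, curve class.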
In the case of `COc1ccc(-n2c(SCC(=O)NCC3CCCO3)nc3ccccc32)cc1` (centres undefined), the Potency is reported as inconclusive: 15.8 µM [inhibitor, single point].
With `CCOc1cc(/C=N/NC(=O)c2cccnc2)ccc1O` the Potency was “inactive”.
For `CCc1ccc(-n2c(=O)c3cccnc3n2CC(=O)N(CC)c2cccc(C)c2)cc1`, the Potency was inconclusive: 17.8 µM [inhibitor, partial curve, poor fit].
With `O=C(Nc1nccs1)c1ccccc1N=Cc1ccccc1` the Potency was “inactive”.
In the case of `CCOC(=O)c1cc(-c2ccccc2)nn1-c1ccccn1`, the Potency is reported as “inactive”.
In the case of `COc1ccccc1C(CNC(=O)C1CC(=O)N(Cc2ccccc2)C1)N1CCCC1` (centres undefined), the Potency is reported as “inactive”.
With `CN1CCN(c2ncc3c(n2)CCN(Cc2ccccc2Cl)C3)CC1` the Potency was “inactive”.
For `COCCn1c(SC(C)C(=O)NCC2CCCO2)nc2scc(-c3ccc(F)cc3)c2c1=O` (centres undefined), the Potency was “inactive”.
In the case of `CCCCNCc1cc(Br)c(OCc2cccs2)c(OC)c1`, the Potency is reported as inconclusive: 35.5 µM [inhibitor, partial curve, poor fit].
For `COc1ccccc1CN1C[C@@H]2C[C@@H](c3ccc(Cl)cc3)N3CCC[C@@]23C1=O`, the Potency was inconclusive: 0.501 µM [inhibitor, full curve, poor fit].
With `O=C(Cc1cccs1)N/N=C/c1ccccn1` the Potency was “inactive”.
With `CCN(c1ccccc1)S(=O)(=O)c1cc(C(=O)Nc2ccc(Br)cc2)ccc1F` the Potency was inconclusive: 20 µM [inhibitor, partial curve, poor fit].
In the case of `CCOC(=O)c1c(Nc2ccccc2)nnc(-c2ccccc2)c1-c1ccccc1`, the Potency is reported as inconclusive: 28.2 µM [inhibitor, single point].
For `CC1Cc2ccccc2N1C(=O)CN(C)CC(=O)Nc1ccc(OC(F)(F)F)cc1` (centres undefined), the Potency was inconclusive: 35.5 µM [inhibitor, single point].
In the case of `Cc1ccccc1OCC(=O)NC(=S)Nc1ccc(S(=O)(=O)NC2CCCCC2)cc1`, the Potency is reported as inconclusive: 35.5 µM [inhibitor, single point].
For `COc1ccc(NS(=O)(=O)c2ccc(O)c(NC(=O)c3cc4c(C)nn(-c5ccc(F)cc5)c4s3)c2)cc1`, the Potency was inconclusive: 10 µM [inhibitor, partial curve, poor fit].
For `OC(COc1ccc2c(c1)CCC2)CN1CCN(c2ccccc2F)CC1` (centres undefined), the Potency was inconclusive: 25.1 µM [inhibitor, single point].
With `CCOC(=O)C1(CC2CCCCO2)CCN(Cc2nccn2-c2cccc(C)c2)CC1` (centres undefined) the Potency was inconclusive: 17.8 µM [inhibitor, single point].
For `CSc1nnc(C)c(/C=C/Nc2ccc(Cl)cc2)n1`, the Potency was inconclusive: 3.55 µM [inhibitor, single point].
For `O=[N+]([O-])c1cccc(CSc2cccc[n+]2[O-])c1`, the Potency was inconclusive: 25.1 µM [inhibitor, single point].
With `COc1cc(NC(=O)CCCSc2nc(-c3ccco3)cc(C(F)(F)F)n2)cc(OC)c1OC` the Potency was inconclusive: 17.8 µM [inhibitor, single point].
For `CCOc1ccc(CN2CCN(CC3=Cc4cccc(OC)c4OC3)CC2CCO)cc1` (centres undefined), the Potency was inconclusive: 22.4 µM [inhibitor, single point].
With `CCCNC(=O)CS(=O)(=O)Cc1nc(-c2ccccc2C)oc1C` the Potency was “inactive”.
With `CSc1ccc(Cl)c(C(=O)Nc2cc(S(=O)(=O)N3CCOCC3)ccc2N2CCOCC2)c1` the Potency was “inactive”.
In the case of `CCOC(=O)[C@H]1NN=C(C(=O)OC)[C@@H]1c1ccccc1`, the Potency is reported as inconclusive: 4.47 µM [inhibitor, full curve, poor fit].
For `COc1cccc(Cn2c(SCc3ccc(C(=O)N4CCC(C)CC4)cc3)nc3ccncc32)c1`, the Potency was inconclusive: 12.6 µM [inhibitor, partial curve, poor fit].
For `CC(C)(C)C(=O)Cn1ncc(Br)c(Br)c1=O`, the Potency was inconclusive: 35.5 µM [inhibitor, single point].
In the case of `Cc1cccc(C)c1OCC(O)CN1CCN(c2ccccc2)CC1` (centres undefined), the Potency is reported as “inactive”.
In the case of `O=C(NNc1ccccc1[N+](=O)[O-])Nc1ccc(Cl)c(Cl)c1`, the Potency is reported as inconclusive: 35.5 µM [inhibitor, single point].
In the case of `CCOc1ccc(C(=O)NNC(=O)c2cc(S(=O)(=O)N3CCOCC3)ccc2Cl)cc1`, the Potency is reported as “inactive”.
With `O=C(NC12CC3CC(CC(C3)C1)C2)c1ccc(-c2ccccc2Cl)o1` the Potency was inconclusive: 35.5 µM [inhibitor, single point].
For `O=C(Cc1ccccc1)Nc1nc(-c2cccc([N+](=O)[O-])c2)cs1`, the Potency was “inactive”.
With `Cc1cccc(-c2nc3sc(C)cc3c(=O)o2)c1` the Potency was inconclusive: 11.2 µM [inhibitor, partial curve, poor fit].
With `Cc1ccc(-n2c(SCc3nc(-c4ccccc4C)no3)nnc2-c2ccncc2)cc1C` the Potency was inconclusive: 20 µM [inhibitor, single point].
For `O=C(NCc1ccc(F)cc1)C1CCCN1S(=O)(=O)c1ccccc1C(F)(F)F` (centres undefined), the Potency was “inactive”.
For `COC(=O)[C@@]12CCCCN1[C@H](c1ccc(-c3ccc4c(c3)OCO4)c(OC)c1)[C@@H]1C(=O)N(C)C(=O)[C@@H]12`, the Potency was inconclusive: 35.5 µM [inhibitor, single point].
In the case of `COC(=O)/C=C1\S/C(=N/N=C/c2ccco2)NC1=O`, the Potency is reported as “inactive”.
With `N#C/C(=C\c1ccc(O)c(O)c1)C(=O)N1CCCC1` the Potency was “inactive”.
For `Cc1c(CN2CCC(C(=O)Nc3ccc(Oc4ccccc4)nc3)CC2)cnn1C`, the Potency was “inactive”.
With `CCOc1ccc(C(=O)CCC(=O)N2CCN(S(=O)(=O)c3cccc(F)c3)CC2)cc1` the Potency was “inactive”.
For `CC(=O)c1ccc(N2CCN(C(=O)c3ccco3)C(C)C2)c(F)c1` (centres undefined), the Potency was “inactive”.
For `Cc1ccc(-c2csc(=Nc3ccccc3)n2CCCO)cc1`, the Potency was active: 7.08 µM.
For `COc1ccc(NC(=O)Cc2nnc(SCC(=O)NC3CCCCC3)n2C)cc1`, the Potency was inconclusive: 3.16 µM [inhibitor, single point].
For `CCOC(=O)c1ccc(NC(=O)Cn2nnc(-c3ccc(C(F)(F)F)cc3)n2)cc1`, the Potency was “inactive”.
With `CCn1c(SCC(=O)c2cccs2)nnc1-c1cccs1` the Potency was “inactive”.
For `O=S(=O)(c1ccc(F)c(Cl)c1)N1CCN(C/C=C/c2ccccc2)CC1`, the Potency was inconclusive: 35.5 µM [inhibitor, single point].
For `Cc1cc(F)ccc1C(O)c1ncc(-c2ccc3ccccc3c2)[nH]1` (centres undefined), the Potency was inconclusive: 14.1 µM [inhibitor, single point].
For `COc1ccccc1NC(=O)Oc1ccc(NC(=O)c2ccco2)cc1`, the Potency was inconclusive: 0.891 µM [inhibitor, full curve, poor fit].
In the case of `O=C1CC(c2ccc(Cl)cc2)SC(N(c2ccccc2)c2ccccc2)=N1` (centres undefined), the Potency is reported as inconclusive: 35.5 µM [inhibitor, partial curve, poor fit].
With `COc1ccc(OC)c(C(=O)N(C[C@H]2CC[C@@H]([C@@H]3CC[C@H](CO)O3)O2)C(C(=O)NC(C)(C)C)c2ccc(-c3ccccc3)cc2)c1` (some centres undefined) the Potency was inconclusive: 35.5 µM [inhibitor, single point].
For `Cn1c(=O)[nH]c(=O)c2c1nc(CN1CCN(c3cccc(Cl)c3)CC1)n2CCc1ccccc1`, the Potency was inconclusive: 35.5 µM [inhibitor, single point].
For `CN(Cc1ccco1)c1ncnc2ccc(-c3ccc4c(ccn4C)c3)cc12`, the Potency was inconclusive: 7.08 µM [inhibitor, partial curve].
With `CC(=NCCCN(C)C)C1=C(O)c2ccccc2C1=O` the Potency was “inactive”.
For `CCS(=O)(=O)Nc1ccc(C(=O)CC2(O)C(=O)Nc3ccc(Br)cc32)cc1` (centres undefined), the Potency was inconclusive: 15.8 µM [inhibitor, single point].
With `COc1ccc(-c2[nH]c(-c3ccc(F)cc3)nc2SCC(=O)Nc2ccc(OC)c(OC)c2)cc1` the Potency was inconclusive: 17.8 µM [inhibitor, single point].
For `Cc1ccc(NC(=O)N(Cc2ccc3c(c2)OCO3)Cc2cc3cc4c(cc3[nH]c2=O)OCCO4)cc1`, the Potency was “inactive”.
With `CC(C)=CCc1c(O)ccc(C(=O)Cc2ccccc2)c1O` the Potency was inconclusive: 35.5 µM [inhibitor, single point].
For `COc1cc(NC(=O)COC(=O)CCOc2ccc(C)cc2)cc(OC)c1`, the Potency was inconclusive: 35.5 µM [inhibitor, single point].
With `COc1ccccc1CN1C2CCCC1CC(NC(=O)/C=C/c1ccccc1)C2` (centres undefined) the Potency was “inactive”.
With `COc1ccc(-c2cc(C)no2)cc1S(=O)(=O)Nc1cccc(C(F)(F)F)c1` the Potency was inconclusive: 5.62 µM [inhibitor, single point].
In the case of `CCN1CCN(CC(O)COC(c2ccccc2)c2ccccc2C)CC1` (centres undefined), the Potency is reported as “inactive”.
With `COc1ccc(CCNC(=O)Cn2c(C)c3cnn(-c4ccccc4)c(=O)c3c2C)cc1OC` the Potency was “inactive”.
In the case of `O=C(N/N=C/c1c[nH]c2ccccc12)c1cc(-c2cccc3ccccc23)n[nH]1`, the Potency is reported as inconclusive: 25.1 µM [inhibitor, single point].
For `N#CCCn1cc(C(=O)Nc2ccc([N+](=O)[O-])cc2)c(-c2cc3ccccc3o2)n1`, the Potency was inconclusive: 10 µM [inhibitor, single point].
With `CCn1cc2nc(SCc3cccc(C(F)(F)F)c3)n(CCc3ccccc3)c(=O)c2n1` the Potency was inconclusive: 0.251 µM [inhibitor, full curve, poor fit].
For `Cc1ccc(-n2[nH]c(C)c(C=Nc3ccc4[nH]c(=O)[nH]c4c3)c2=O)cc1`, the Potency was inconclusive: 35.5 µM [inhibitor, single point].
With `Oc1ccc(Br)cc1Cn1nnc2ccccc21` the Potency was inconclusive: 35.5 µM [inhibitor, single point].
With `COc1ccccc1NC(=O)CCN1CCC(C(N)=O)CC1` the Potency was “inactive”.
With `O=C(Nc1ccc(F)c(Cl)c1)C1Cc2c(-c3ccc(Cl)cc3)ccnc2O1` (centres undefined) the Potency was active: 15.8 µM.
